# Source: article PMC6451091
# The other results are listed elsewhere or left out. For part of these data: At the low end of the ranking, values are background and their order means little. For part of these data: The protein was read in a cell extract, so binding may be indirect.
# Key:
# Conditions in all cases: 20 mM HEPES pH 7.9, 100 mM NaCl, 1 mM DTT, 0.2 mg/mL BSA, 0.02% Triton X-100, 2% milk, 0.4 mg/mL salmon testes DNA; 1 h; temperature not stated; high values mean tight binding; double strand, one strand shown; sequences stand for … in GCCTAGCAC…GTGCTAGGTCTTGATTCGCTTGACGCTGCTG
# PU.1 (IVT) = PU.1 (IVT) (UniProt P17947); assay: protein-binding microarray (PBM)
# [1] = target: PU.1 (endogenous, THP-1 nuclear extract) (UniProt P17947); assay: nuclear extract protein-binding microarray (nextPBM)
# [2] = target: T1, FLI1 (endogenous, THP-1 nuclear extract) (UniProt Q01543); assay: as above
# T1 sequence: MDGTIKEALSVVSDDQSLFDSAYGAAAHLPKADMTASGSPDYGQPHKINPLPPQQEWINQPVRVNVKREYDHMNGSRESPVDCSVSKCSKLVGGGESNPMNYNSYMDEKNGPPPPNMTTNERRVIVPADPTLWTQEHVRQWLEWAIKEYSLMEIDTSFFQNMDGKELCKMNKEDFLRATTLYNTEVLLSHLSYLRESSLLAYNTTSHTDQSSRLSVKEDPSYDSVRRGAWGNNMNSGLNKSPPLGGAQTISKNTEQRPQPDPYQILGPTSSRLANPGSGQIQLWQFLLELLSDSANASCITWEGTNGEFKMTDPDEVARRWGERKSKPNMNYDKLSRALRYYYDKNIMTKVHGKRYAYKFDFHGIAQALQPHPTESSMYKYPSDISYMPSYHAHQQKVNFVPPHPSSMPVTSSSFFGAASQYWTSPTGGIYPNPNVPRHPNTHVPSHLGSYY
Sequence,binding signal (PU.1 (IVT)),binding signal [1],binding signal [2]
GCCTTGGGGAAGTGCCAGTT,2.92 z-score,2.97 z-score,1.33 z-score
TTTTTGAGGAACTGCCAAAT,4.28 z-score,4.43 z-score,1.11 z-score
CAAAAGAGGAAGTCGCATTA,7.81 z-score,7.21 z-score,3.71 z-score
TCAAGGAGGAAGTGGTAGGC,4.75 z-score,5.38 z-score,2.88 z-score
TGCAACAGGAAGTGGGGTGT,4.12 z-score,4.55 z-score,5.34 z-score
TAAAAGAGGAAGTGGATAAA,7.81 z-score,7.14 z-score,4.2 z-score
TCAGTGAGGAAGTGAAACAC,3.58 z-score,4.36 z-score,2.14 z-score
TAAATGGGGAAGTGGGGCGG,6.03 z-score,6.71 z-score,3.11 z-score
GGAAAGAGGAAGTGCAACCA,8.07 z-score,7.34 z-score,4.54 z-score
TGAAAGAGGAAGGGCAACCA,3.15 z-score,3.49 z-score,1.17 z-score
AAATTAAGGAAGTGAGAAAA,6.2 z-score,6.32 z-score,2.54 z-score
ACAAAAAGGAACCGTGCCCC,0.641 z-score,0.938 z-score,0.7 z-score
GAAAAGAGGAACTCTTGCTC,7.1 z-score,6.84 z-score,3.36 z-score
CGAAAGGGGAAGTGCAAAAC,7.07 z-score,6.89 z-score,2.91 z-score
GGACTAAGGAAGTGATAGAA,2.85 z-score,2.41 z-score,2.01 z-score
GAGTGGGGGAAGTGAAACAA,2.85 z-score,3.36 z-score,1.62 z-score
ACAAAAAGGAACGGTGCCCC,-0.22 z-score,0.411 z-score,-0.0827 z-score
GAAAACAGGAACTGGCAAAG,5.45 z-score,6.05 z-score,2.56 z-score
TGAAACAGGAAGTACTGTGA,6.92 z-score,6.81 z-score,4.91 z-score
AAAAAGAGGAACTGTTGGAG,7.21 z-score,7.09 z-score,3.35 z-score
GATACGAGGAAGTCCTCTGT,2.67 z-score,2.74 z-score,1.35 z-score
TTTATGAGGAAGTGGAGGCA,5.49 z-score,5.94 z-score,2.58 z-score
GAGAAGAGGAAGTAGAACAA,6.62 z-score,6.81 z-score,3.28 z-score
AGTATGAGGAAGTGAGACCT,5.63 z-score,6.41 z-score,2.73 z-score
TTATAGAGGAAGTGTGAAAT,4.15 z-score,4.5 z-score,2.49 z-score
AGGCAGAGGAAGTGGCCTGA,2.98 z-score,2.94 z-score,2.1 z-score
TAAATGAGGAAGTGAAGGCT,7.65 z-score,7.04 z-score,3.48 z-score

Sequence,binding signal (PU.1 (IVT)),binding signal [1],binding signal [2]
AGAGAGAGGAAGTGAGCTCT,4.31 z-score,5.05 z-score,3 z-score
AGGAAGAGGAAGTGGTTCTT,6.99 z-score,6.76 z-score,4.06 z-score
ATGGAGAGGAAGTGATGCCT,4.09 z-score,3.94 z-score,2.79 z-score
GAAAAGGGGAAGTCAGGCTT,7.71 z-score,7.4 z-score,3.37 z-score
AGAAAACGGAAGTGAGGTAC,6.67 z-score,6.89 z-score,5.26 z-score
TAGAAAGGGAAGTGGCTTTT,5.09 z-score,5.25 z-score,2.54 z-score
TGTAAGAGGAACTGGTAAAG,3.6 z-score,3.26 z-score,1.34 z-score
AGGAAAAGGAAGTGGGGAGC,3.23 z-score,3.31 z-score,2.98 z-score
TGGAAGAGGAAATGTTTCTG,2.62 z-score,2.06 z-score,2.26 z-score
GGAAAGAGGAAGTGCGAGCA,7.7 z-score,7.22 z-score,4.29 z-score
AGAAAGAGGAAATGGTACCA,4.83 z-score,5.31 z-score,3.05 z-score
TCAAAAAGGAAGTCGCTGAC,2.98 z-score,2.97 z-score,2.27 z-score
CAAAAGAGGAAGTTGGCAAA,8.72 z-score,7.41 z-score,4.62 z-score
TGAAAAGGGAAGTGCTACAC,6.25 z-score,6.26 z-score,2.62 z-score
TAAATGAGGAAGTGAGCTAG,7.58 z-score,7.34 z-score,3.77 z-score
AGAAAGAGGAAATGACTTTA,6.15 z-score,6.41 z-score,3.36 z-score
AAAAAGAGGAAGTCGTTTTC,8.57 z-score,7.41 z-score,4.46 z-score
GAAAAGGGGAAGTGTGTGTT,7.89 z-score,7.42 z-score,3.36 z-score
CAAAAAGGGAAGTGGAGGCT,6.26 z-score,6.46 z-score,2.67 z-score
AGAAAAGGGAAGTGGGAAGG,6.49 z-score,6.74 z-score,3.1 z-score
AATATGAGGAACTGCCAGCG,4.27 z-score,4.45 z-score,1.31 z-score
AATAAGAGGAAGTGACTATT,7.49 z-score,7.12 z-score,3.69 z-score
GAGAAGAGGAAGTCAAATAA,5.64 z-score,6.36 z-score,3.2 z-score
GCCATAGGGAAGTGCTCTAG,4.04 z-score,4.4 z-score,1.72 z-score
CAAAAGGGGAAGTCAAAGAA,6.73 z-score,6.89 z-score,3.22 z-score
TAAGTGGGGAAGTGAAGACA,3.06 z-score,2.79 z-score,1.29 z-score
CGAAAGGGGAAGTGCTAAAC,6.93 z-score,7.05 z-score,3.52 z-score
